Data taken from PubChem BioAssay (NCATS).
Inconclusive means that the source gave no clear call. Such entries were picked first, then a sample of the others. A potency beside an inconclusive call is a rough fit, not a confirmed value. The source made the active and inactive calls. Calls follow the shape of the dose curve; as a rule, active = well fitted cell-killing curve with a large enough effect; inconclusive = small, poorly fitted or top-dose-only effect, or effect the other way; inactive = no such curve, though single readings can be large or run the other way.
Potency is read from the fitted curve at half-maximal effect; tags tell the direction and shape of the fitted curve.

Assay: Viability qHTS for spleen associated tyrosine kinase inhibitor (SYKi) naive MV4-11 cells (AID 1963823); also: nearly all actives have a fitted effect of over 40% in size
Settings: MV4-11 AML viability, CellTiter-Glo luminescence, 72 h; viability (% of control): at 45 µM (top of the series)
In short: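 Compounds were dispensed acoustically onto plates, MV4-11 cells (SYKi-naive) added at 500 per well, and plates incubated 72 hr at 37 C. CellTiter-Glo was added and luminescence measured after 10 min.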
For `CC(NC(CCc1ccccc1)C(=O)O)C(=O)N1C(=O)N(C)CC1C(=O)O` (stereo not given), the “viability (% of control)” value was inactive: 85.1%.
In the case of `C[C@]12CC/C(=N\OCC(=O)O)C=C1CC[C@@H]1[C@@H]2[C@@H](O)C[C@@]2(C)[C@H]1CC[C@]2(O)C(=O)CO`, the Potency is reported as inconclusive: 9200 nM [rising, partial curve].
With `CN(C)c1ccc2c(c1)OC(N)=C(C#N)C2c1cccc(C(F)(F)F)c1` (stereo not given) the Potency was inconclusive: 184 nM [cytotoxic, full curve].
With `Cc1cc(OCCCc2c3n(c4c(-c5c(C)nn(C)c5C)c(Cl)ccc24)[C@H](C)CN(c2cn(C)c4ccc(C(=O)O)cc24)C3=O)cc(C)c1Cl` the Potency was active: 742 nM.
For `Cc1cnn(-c2ccccc2)c1NC(=O)COCc1ccccc1`, the “viability (% of control)” value was inactive: 74.7%.
With `C[C@H]1CNCCCN1S(=O)(=O)c1cccc2cncc(F)c12` the Potency was inconclusive: 16200 nM [cytotoxic, single point].
In the case of `CC1(C)CC[C@]2(C(=O)O)CC[C@]3(C)C(=CCC4[C@@]5(C)CC[C@H](O[C@@H]6O[C@H](C(=O)O)[C@@H](O)[C@H](O)[C@H]6O)C(C)(CO)C5CC[C@]43C)C2C1` (stereo not given in full), the “viability (% of control)” value is reported as inactive: 77.5% [at 17.3 µM].
With `C/C1=C\[C@@H](C)C[C@@H](C)[C@@H](Cc2cnco2)OC(=O)/C(C)=C/[C@@H](C)C[C@@H](C)[C@@H](Cc2cnco2)OC1=O` the Potency was inconclusive: 356 nM [cytotoxic, full curve].
In the case of `CCC(C)/C=C(C)/C=C/C1=CC2=C(Cl)C(=O)C(C)(OC(C)=O)C(=O)C2=CN1C(CCCN=C(N)N)C(=O)O` (stereo not given), the “viability (% of control)” value is reported as inactive: 72.9% [at 17.3 µM].
For `CC1OC2OC3C(OCC(O)C3O)OC(=O)C34CCC(C)(C)CC3C3=CCC5C6(C)CC(O)C(OC7OC(CO)C(O)C(O)C7OC7OCC(OC(=O)CC(C)(O)CC(=O)OC1C(OC1OCC(O)C(O)C1O)C2O)C(O)C7O)C(C)(CO)C6CCC5(C)C3(C)CC4O` (stereo not given), the Potency was inconclusive: 2240 nM [cytotoxic, partial curve].
